We go through 89 sequences from the supplement of paper PMC11417369.

± gives the standard deviation of the averaged measurements. The list shows a part of the results.

This test relates to PfAP2-EXP AP2 domain (GST-tagged). Kind of test: gcPBM binding intensity (ln(normalized median fluorescence intensity)); higher = stronger DNA binding. Summed up:
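In this array assay, P. falciparum DNA-binding domains with a GST tag, expressed in E. coli, were applied for 1 h to primer-extended double-stranded 36-bp intergenic genomic probes and negative controls on an Agilent 4 × 180k array. Bound protein was visualised with Alexa488 anti-GST antibody at 488 nm. Binding intensity is the highest Masliner-normalised natural-log median intensity across replicate spots of either probe orientation.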
Turning to “TAGTATTAAAATATTTGTACTTATATGTATTATATA [XGTACX_site538]”, the “gcPBM binding intensity (ln)” value was determined as 8.25 ± 0.37. The result for “TGTAGTCTGGAGAAGAGTACACAGTATCTGGTAACA [XGTACX_site2038]” reads 8.41 ± 0.31. In the case of “AATATTTTAAAAAAAAGTACATTATATATATATGTT [XGTACX_site8073]” it was 8.45 ± 0.29; in that of “AGAATTCGTTTAAAAAGTACATTCAATTTAATAATG [XGTACX_site6603]”, 8.22 ± 0.31; in that of “AATAAAAAGGAACACACACACACACGGATATAAATA [CACACA_site7658]”, 8.97 ± 0.47. The result for “TATTTTACATCTTCTCACATTTTATCACTTTTTAAA [CACACA_negctrl_site330]” reads 8.76 ± 0.41. As to “TCTTTGTAAATTTCTTGTACGTAAATTTTTTTTAGG [XGTACX_site7062]”, the “gcPBM binding intensity (ln)” value was 8.8 ± 0.52.

With “TCATAGTATAGACACACACACACACGCATATAAATA [CACACA_site6915]”, the “gcPBM binding intensity (ln)” value is 8.79 ± 0.57. The result for “ATAGACAGCGCACAAACACACAAACACAGACCCCCA [CACACA_site4409]” reads 9.51 ± 0.48; that for TTATTTTTGTTCATAGTGCATAGAATTTATACATAT, 8.77 ± 0.2; that for “TTTTTTTTATGGTACACACACGCGTATGGTTGCACG [CACACA_site1877]”, 8.71 ± 0.43. The result for “TTTTTTTCTTTTCAAACACACAATTGGTATATATCA [CACACA_site7542]” reads 8.62 ± 0.39; that for “TTGTAAATTTCTGGTTATATATTTTATGTATATGTT [CACACA_negctrl_site1443]”, 8.6 ± 0.35; that for “ATTTATTTATTGGCACGTACAAATTTGTGTTTTCCA [XGTACX_site6978]”, 9.02 ± 0.42. In the case of “ATAAAGGAAATTACAAGTACAAATAAGATAAAATAA [XGTACX_site4514]” it was 8.84 ± 0.46.

Regarding “AATTATATATTATAATGTACATATATATAACTATAC [XGTACX_site1865]”, the “gcPBM binding intensity (ln)” value worked out at 8.45 ± 0.26. “AAAGAAATGAAATATACACACATACATAAATACATA [CACACA_site6081]”: the “gcPBM binding intensity (ln)” value was determined as 8.76 ± 0.39. In the case of “TATAAAAAAAGAGGAGGGATGGTATACTTGTGGTTT [TGCATGCA_negctrl_site49]” it was 8.55 ± 0.66; in that of “ATATATTTAAACTACACACGCATATCTTAGAAATAA [CACACA_site1272]”, 8.53 ± 0.42; in that of “AAAAAAAAAAAATATGTACACACATATATAATACAT [CACACA_site8473]”, 8.5 ± 0.4. Consider “TATATGTTTGAATATACACACAACATATTTATATAT [CACACA_site7832]”, for which the “gcPBM binding intensity (ln)” value was found to be 8.26 ± 0.41. The result for “TTTTTTGTTAAAAGAGTGCAAATTTTTAAAGATTTG [GTGCAC_site9502]” reads 8.44; that for “AAAAAAAAAAAAAAATACAAGCACATTTATATAAGC [GTGCAC_negctrl_site695]”, 8.47 ± 0.4; that for “AGTAATATAATATAAGCACACGTGTATTTATTTAGG [CACACA_site7921]”, 8.58 ± 0.27. In the case of “TATATATCAATATTTACACACATGCGCCCACATAAA [CACACA_site7185]” it was 8.84 ± 0.41; in that of “AAATACATTAAAATGACATGCAGATATATATCAAAA [TGCATGCA_site477]”, 9.04 ± 0.32; in that of “TGAATAAAGATATATACACACATATAGGTATATATC [CACACA_site6870]”, 8.43 ± 0.35. In the case of “AAAAAAAAAAGACACACACACACAAATACATACACA [CACACA_site6472]” it was 8.61 ± 0.47. Consider “ATCTAAATAAAGTTAACACACACATAATATATATAT [CACACA_site8055]”, for which the “gcPBM binding intensity (ln)” value came out at 9.59 ± 0.071. In the case of “TGCTTATATTTTTATACACACAAGATACTTTTTGTT [CACACA_site1535]” it was 8.55 ± 0.36.

Take “CTATGCCCCATATAAACACACAAATAAAAAGAATAT [CACACA_site2681]”: the “gcPBM binding intensity (ln)” value amounted to 8.81 ± 0.57. With “TTTTTTTCTTTTGGGAGTACCAACATTTTCACATAT [XGTACX_site1371]”, the “gcPBM binding intensity (ln)” value worked out at 8.78 ± 0.41.

Consider “TGCAATGGAGCATAAAGTACATATAATTGTATTTTT [XGTACX_site7349]”, for which the “gcPBM binding intensity (ln)” value is 8.41 ± 0.44. In the case of “TAGAATAATCCTTACACACACACACCCACGAATAAA [CACACA_site483]” it was 8.82 ± 0.63. In the case of “AATACAGAGGAAAATACACACGTATATATATAAATA [CACACA_site9125]” it was 8.73 ± 0.44. The result for “TTTTAAAAAAAAAAAAAAAAAAAAAAAAAAAAAAAA [CACACA_negctrl_site1343]” reads 7.76 ± 0.21; that for “TGTTTTTTTATTTTCACACATAATCCAATTATACAT [CACACA_site6070]”, 8.91 ± 0.41; that for TTTTAAAATTATTAGGTGCATATTTATTCTATATTT, 8.45 ± 0.23. As to “CAACACTTAGATTTTAAGTTCACTGGTTAATATATA [CACACA_negctrl_site707]”, the “gcPBM binding intensity (ln)” value turned out to be 8.12 ± 0.4.

Consider AATAAAAATAATATAGTGCATAATATAAGGAAAAAA, for which the “gcPBM binding intensity (ln)” value came out at 9.07 ± 0.071. In the case of “TTAAAAAAATATAGAGCATGCTAAAAATAAAAAAAT [TGCATGCA_site794]”, the “gcPBM binding intensity (ln)” value stood at 9.12 ± 0.49.

“GTTATACTCATCAACACACACATACAACGTGGTGTA [CACACA_site4789]”: the “gcPBM binding intensity (ln)” value came out at 8.41 ± 0.67.

For “AGGTCTATATAATAAGTGCATTTTTTTTTTTTTTTT [GTGCAC_site9664]”, the “gcPBM binding intensity (ln)” value stood at 8.565 ± 0.064. The result for “GCATCTCATTTGTGATGTACTATATTATCCGTTTTT [XGTACX_site7576]” reads 8.59 ± 0.37; that for “TTTCTATATCTATTTAATTAACTTTTTATACTGATT [GTGCAC_negctrl_site415]”, 8.55 ± 0.43; that for “ATCAACAAAACATACACACACATATATATATATATA [CACACA_site2989]”, 10.2 ± 0.46. As for “CATATCATTGATTATAGTACACATACCATTTTTTAT [XGTACX_site6572]”, the “gcPBM binding intensity (ln)” value came out at 8.66 ± 0.38. In the case of “CACATAAAAAAATAAACACACATATGTATTTATATA [CACACA_site5718]” it was 8.22 ± 0.38. In the case of “ATTTATATTACAAAAAGTACACACATAAATAAATAC [XGTACX_site1827]” it was 8.97 ± 0.29; in that of “TATATATATTATATATGTACATATATTTTTTTTTTT [XGTACX_site127]”, 8.69 ± 0.19. In the case of “ATATATATATATATAACACACGTGTATATATATGTA [CACACA_site3644]” it was 10.2 ± 0.23; in that of “TATTAATCATATAAATGTACGTATATATATTTTTCT [XGTACX_site1421]”, 8.43 ± 0.35; in that of “AAAAAAAAAAAATATATATATATATATATATATATA [CACACA_negctrl_site1606]”, 10.3 ± 0.21. For “CAATCATAGAAAAACAGTACGTGTAGCAAACATCCT [XGTACX_site4889]”, the “gcPBM binding intensity (ln)” value was 8.61 ± 0.62. The result for “TATAATATATTATAACGTACAAATATATATATAAAA [XGTACX_site6581]” reads 8.6 ± 0.49; that for “CAAATACAGAAACACACACACATATACATATATATA [CACACA_site3498]”, 8.65 ± 0.28. In the case of “AAAATCTAGGTATTTATACACACTAAAATAATATAC [CACACA_site623]” it was 8.52 ± 0.3; in that of “TTTAAATATAATTGGAGTACTTATAATATATATATA [XGTACX_site7247]”, 9.46 ± 0.12.

In the case of ATTACACATATAGTAGTGCAATAACTCCAAAAAAAA, the “gcPBM binding intensity (ln)” value is 8.88 ± 0.22. In the case of “AATATGTAATAGTGTACACATATATCTGTATTTATG [CACACA_site4252]” it was 8.61 ± 0.3; in that of “ATGTTATTAAAAAAGGGTACACATCTTTTATGTTAA [XGTACX_site812]”, 8.68 ± 0.42; in that of “TATATATATATATGGGGTACAAATGGTCAGTATTAT [XGTACX_site1223]”, 10.2 ± 0.21. “GAAAATATAAAAAAAAGTACATTTTCTCTAAATATA [XGTACX_site2441]”: the “gcPBM binding intensity (ln)” value is 8.46 ± 0.36.

Regarding “AAAAAGGGTATTATTACACACACGTAAATATTAAGA [CACACA_site4233]”, the “gcPBM binding intensity (ln)” value turned out to be 8.64 ± 0.39. The result for “CTATATAATATGAGCACACATAAGATTTGGTGTTAT [CACACA_site744]” reads 8.44 ± 0.36; that for “AAAAAAAAATTATATACACACATATAAATATATATA [CACACA_site1197]”, 8.09 ± 0.014; that for “CCTATTTATTTATACACACACATATATAAATAAATA [CACACA_site7417]”, 8.63 ± 0.26.

For “AAAACAAATAAGTAAACACACATATAAAATCTATAT [CACACA_site7262]”, the “gcPBM binding intensity (ln)” value is 8.58 ± 0.4. The result for “TTATGTAAATGCTTATGTACTTATTACAATATTTTT [XGTACX_site4057]” reads 8.5 ± 0.41; that for “TAAGAATTGAAAAAATGTACACAATATAAAATTGAA [XGTACX_site698]”, 8.42 ± 0.42.

Regarding “AAAAAGAATAAATAAATAAATAAATATATATATATA [GTGCAC_negctrl_site584]”, the “gcPBM binding intensity (ln)” value amounted to 10.1 ± 0.14. In the case of “AAAAAGAAAAAAAAATGTACATAAAGTCTAATGATA [XGTACX_site4781]” it was 8.85 ± 0.73; in that of “TTTATTACTATGTAAACACACATGCAATATATGTTA [CACACA_site1114]”, 8.54 ± 0.34. The result for “ATATTATATAAATACACACACACATGCATGCACATA [CACACA_site4236]” reads 10.04 ± 0.064.

For the sequence “ATAATGTAGAACTAGAGTACATAAAAAAATAAACAT [XGTACX_site5205]”, the “gcPBM binding intensity (ln)” value came out at 9.06 ± 0.47. The result for “GCTACACAATTTTTTAGTACACACATATAAATATAT [XGTACX_site3131]” reads 8.85 ± 0.24; that for “TTTTTTTTTTTTTTTTTTTGTCTTATATATTACGGA [CACACA_negctrl_site322]”, 7.87 ± 0.44; that for “TATATATTATCAAGTGGACACACGAAAAAAAGGAAA [CACACA_site3741]”, 9.05 ± 0.47.

For “TAAAGATTGTTCAGTGCATGTTGGCCTGTAAATGGA [TGCATGCA_site315]”, the “gcPBM binding intensity (ln)” value stood at 8.68 ± 0.28. Take “TTTTTCATATTATACTTTTATATACATATATAAAAA [XGTACX_negctrl_site281]”: the “gcPBM binding intensity (ln)” value was found to be 8.55 ± 0.31. In the case of “GTAATTTTGAGATGATGTACATATTTTTTCCTTGTC [XGTACX_site4103]” it was 8.78 ± 0.47; in that of “AAAAGAAACTTATTTACGCACACTTTATTGCATGTT [CACACA_site3887]”, 8.77 ± 0.32; in that of “GATAAATCATATATAACACACATATGAATATTACAA [CACACA_site1321]”, 8.29 ± 0.45. The result for “TAAGATATATTTTTTTGTACACATAATAAAATAATA [XGTACX_site8938]” reads 8.22 ± 0.31; that for AGTGTTTTTTATAAAGTGCAATATAAAAACAAAATG, 9.05 ± 0.43. The result for “ATGTTATATATGTATTGTACGTATTTTGTATATTAT [XGTACX_site6607]” reads 8.99 ± 0.34; that for “AATTTTTTTTTATTGTGTACTTATTTTTTTATATTT [XGTACX_site917]”, 8.68 ± 0.38.

For “AAGAATAAAGAATGGTGTACATGCATATAAAATATT [XGTACX_site5707]”, the “gcPBM binding intensity (ln)” value turned out to be 9.16 ± 0.28. The result for “TTTTATTTCATTTGTTGTACTTTCAAAATATTATTA [XGTACX_site2192]” reads 8.89 ± 0.47.
